Source: PMC5157838 (Analytical chemistry, 2015)

Biological target: T1, recombinant human C-reactive protein, purified from Escherichia coli (human, UniProt P02741 19-224)
T1 sequence: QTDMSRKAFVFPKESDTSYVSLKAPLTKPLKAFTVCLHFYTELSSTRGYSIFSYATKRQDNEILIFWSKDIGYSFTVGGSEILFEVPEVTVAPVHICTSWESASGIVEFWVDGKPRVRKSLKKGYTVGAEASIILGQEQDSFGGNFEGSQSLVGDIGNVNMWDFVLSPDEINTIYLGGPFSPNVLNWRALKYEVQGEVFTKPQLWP
Assay: native MS

B1: Serum amyloid P component, purified from human serum (natural protein)
chain: not shown
modifications: glycosylated at Asn-32
binding result: binds
